# According to ChEMBL document CHEMBL5606458, “ASAP - ZIKV NS2B-NS3 protease fluorescence single point” (2024):
# Hit rate of the full screen: of about 2,700 compounds, about 160 (5.9%) showed an effect of 50% or more. Some of the results follow. Where a SMILES comes first, the peptide text is derived from it. The star is where a group is joined. pNA = O=[N+]([O-])c1ccc(N*)cc1; Boc = CC(C)(C)OC(=O)*
# Biological target: Nonstructural protein 3 (Zika virus) (UniProt A0A024AXB9)
# [1] = PRVABC59, Concentration 50.0 uM, Number of replicates 1.0
# [2] = PRVABC59, Concentration 15.0 uM, Number of replicates 1.0
# Sequence of UniProt A0A024AXB9 (A0A024AXB9 as listed by the source): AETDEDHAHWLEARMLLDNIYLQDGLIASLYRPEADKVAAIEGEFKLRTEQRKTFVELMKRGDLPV
compound,measurement,setting,value
CNC(=O)c1cc(Cl)ccc1NC(=O)c1ccc(Oc2ccccc2)cc1,inhibition,"PRVABC59, Concentration 49.5 uM, Number of replicates 2.0, Standard deviation 3.5910316959401247 %",0.54%
same,inhibition,"PRVABC59, Concentration 99.01 uM, Number of replicates 2.0, Standard deviation 4.1090108164613115 %",-4.16%
CCN(CC)S(=O)(=O)c1ccc(NC(=O)C2CCN(c3ccc(C=O)cc3)CC2)cc1,inhibition,[1],23.8%
CN(C(=O)C1CCN(c2ccc(C=O)cc2)CC1)C(c1ccccc1)c1ccccc1,inhibition,[1],23%
CCCN(C(=O)C1CCN(c2ccc(C=O)cc2)CC1)[C@@H](C)C(=O)Nc1ccccc1C,inhibition,[1],11.6%
O=Cc1ccc(N2CCC(C(=O)NCc3cccc(Br)c3)CC2)cc1,inhibition,"PRVABC59, Concentration 10.0 uM, Number of replicates 1.0",15.6%
Oc1ccc(CN2CC[C@H](c3c[nH]c4ccccc34)C2)cn1,inhibition,"PRVABC59, Concentration 49.5 uM, Number of replicates 2.0, Standard deviation 2.050228303896922 %",-2.83%
same,inhibition,"PRVABC59, Concentration 99.01 uM, Number of replicates 2.0, Standard deviation 2.544819210948747 %",-0.305%
same,inhibition,"PRVABC59, Concentration 198.0 uM, Number of replicates 2.0, Standard deviation 1.9255234498796154 %",4.13%
C[C@H]1CN(C(=O)OC(C)(C)C)CCN1C(=O)C1CCN(c2ccc(C=O)cc2)CC1,inhibition,[1],20.9%
CCCCCC(=O)N[C@H](C(=O)Nc1ccc(C(N)=O)cc1)c1ccc(OCc2ccccc2)cc1,inhibition,"PRVABC59, Concentration 49.5 uM, Number of replicates 2.0, Standard deviation 0.24855825740099582 %",1.21%
same,inhibition,"PRVABC59, Concentration 99.01 uM, Number of replicates 2.0, Standard deviation 0.07456746879092904 %",1.42%
same,inhibition,"PRVABC59, Concentration 198.0 uM, Number of replicates 2.0, Standard deviation 1.8269031118183072 %",-0.013%
CC(=O)Nc1ccc(C(=O)Nc2cccc3c(CO)cc(C)nc23)cn1,inhibition,"PRVABC59, Concentration 49.95 uM, Number of replicates 2.0, Standard deviation 3.201576439673513 %",4.07%
same,inhibition,"PRVABC59, Concentration 99.9 uM, Number of replicates 2.0, Standard deviation 1.5756980323308272 %",14.8%
Cc1cc(CO)c2cccc(Cc3ccccc3C(=O)Nc3cc(C)[nH]n3)c2n1,inhibition,"PRVABC59, Concentration 49.95 uM, Number of replicates 2.0, Standard deviation 0.3827726205541183 %",2.34%
same,inhibition,"PRVABC59, Concentration 99.9 uM, Number of replicates 2.0, Standard deviation 0.9647966590796107 %",6.09%
CN1CCN(c2ccc(CCNc3ccccc3F)cc2)CC1,inhibition,"PRVABC59, Concentration 49.5 uM, Number of replicates 2.0, Standard deviation 1.9478024425898681 %",-2.52%
same,inhibition,"PRVABC59, Concentration 99.01 uM, Number of replicates 2.0, Standard deviation 0.3514217136310701 %",0.143%
same,inhibition,"PRVABC59, Concentration 198.0 uM, Number of replicates 2.0, Standard deviation 1.9900275999452952 %",-0.82%
Cc1cc(CO)c2cccc(Cc3cccc(C(=O)NCCN4CCOCC4)c3)c2n1,inhibition,"PRVABC59, Concentration 49.95 uM, Number of replicates 2.0, Standard deviation 1.0591793001105425 %",-8.9%
same,inhibition,"PRVABC59, Concentration 99.9 uM, Number of replicates 2.0, Standard deviation 2.5588083400253914 %",-9.57%
O=C(NCc1cccc(F)c1Cl)c1cc(Cl)ccc1NS(=O)(=O)c1ccc(Oc2ccccc2Cl)cc1,inhibition,[2],25.6%
O=C(NCCN1C(=O)c2ccccc2C1=O)c1cc(Cl)ccc1NS(=O)(=O)c1ccc(Oc2ccccc2Cl)cc1,inhibition,[2],15.8%
CC(C)(COC(=O)c1cncc(N2CCOCC2)c1)NC(=O)c1cc(N)cc(Cl)c1,inhibition,"PRVABC59, Concentration 49.5 uM, Number of replicates 2.0, Standard deviation 3.2630806613558843 %",2.65%
same,inhibition,"PRVABC59, Concentration 99.01 uM, Number of replicates 2.0, Standard deviation 2.470164076712915 %",8.01%
same,inhibition,"PRVABC59, Concentration 198.0 uM, Number of replicates 2.0, Standard deviation 2.2058581551280056 %",13.6%
O=Cc1ccc(N2CCC(C(=O)Nc3cc(Cl)c(O)c(Cl)c3)CC2)cc1,inhibition,[1],98.7%
Cc1cc(CO)c2cccc(NC(=O)C3CCN(C)CC3)c2n1,inhibition,"PRVABC59, Concentration 49.95 uM, Number of replicates 2.0, Standard deviation 2.9039680698338874 %",1.89%
same,inhibition,"PRVABC59, Concentration 99.9 uM, Number of replicates 2.0, Standard deviation 2.0814932575907883 %",29.5%
c1ccn2c(CNCc3csc(C4CC4)c3)nnc2c1,inhibition,"PRVABC59, Concentration 49.5 uM, Number of replicates 2.0, Standard deviation 0.9921119894526725 %",-1.21%
same,inhibition,"PRVABC59, Concentration 99.01 uM, Number of replicates 2.0, Standard deviation 0.6053564495674263 %",-2.2%
same,inhibition,"PRVABC59, Concentration 198.0 uM, Number of replicates 2.0, Standard deviation 0.9097162071661786 %",-1.78%
O=C(Nc1cc(C(F)(F)F)ccc1N1CCCC1)c1cc(Cl)ccc1NS(=O)(=O)c1ccc(Oc2ccccc2Cl)cc1,inhibition,[2],27.7%
O=Cc1ccc(N2CCC(C(=O)NCCCOCCOCCO)CC2)cc1,inhibition,[1],22.5%
O=C(c1cc(Cl)ccc1NS(=O)(=O)c1ccc(Oc2ccccc2Cl)cc1)N1CC=C(c2ccccc2)CC1,inhibition,[2],-1.1%
O=C(NCCc1cncnc1)c1cn([C@H]2CCCNC2)nn1,inhibition,"PRVABC59, Concentration 49.5 uM, Number of replicates 2.0, Standard deviation 1.9755922648176436 %",-1.34%
same,inhibition,"PRVABC59, Concentration 99.01 uM, Number of replicates 2.0, Standard deviation 2.2473128259458055 %",-2.27%
same,inhibition,"PRVABC59, Concentration 198.0 uM, Number of replicates 2.0, Standard deviation 2.3760225788757383 %",-2.12%
CCCCCC(=O)N[C@@H](CC(C)C)C(=O)NCc1cccc(CN)c1,inhibition,"PRVABC59, Concentration 49.5 uM, Number of replicates 2.0, Standard deviation 0.4619563493687485 %",-1.54%
same,inhibition,"PRVABC59, Concentration 99.01 uM, Number of replicates 2.0, Standard deviation 0.9009194855323789 %",-2.09%
same,inhibition,"PRVABC59, Concentration 198.0 uM, Number of replicates 2.0, Standard deviation 0.03971564970139162 %",-1.7%
CC(C)(C)OC(=O)NCc1cccc(NC(=O)[C@@H](N)c2ccc(OCc3ccccc3)cc2)c1,inhibition,"PRVABC59, Concentration 49.5 uM, Number of replicates 2.0, Standard deviation 2.056917430224086 %",4.5%
same,inhibition,"PRVABC59, Concentration 99.01 uM, Number of replicates 2.0, Standard deviation 1.8280366091621592 %",5.34%
same,inhibition,"PRVABC59, Concentration 198.0 uM, Number of replicates 2.0, Standard deviation 0.2620084125788834 %",6.2%
CN1CCN(c2ccccc2NC(=O)C2CCN(c3ccc(C=O)cc3)CC2)CC1,inhibition,[1],22.1%
O=C(c1cc(Cl)ccc1NS(=O)(=O)c1ccc(Oc2ccccc2Cl)cc1)N1CCN(C(=O)C(F)(F)F)CC1,inhibition,[2],3.42%
CCc1nc([C@@H](C)NC(=O)c2ccc(O)c(NC(=O)c3ccncc3F)c2C)n[nH]1,inhibition,"PRVABC59, Concentration 49.5 uM, Number of replicates 2.0, Standard deviation 3.1408649159179345 %",-4.85%
same,inhibition,"PRVABC59, Concentration 99.01 uM, Number of replicates 2.0, Standard deviation 2.840728525421065 %",-3.05%
same,inhibition,"PRVABC59, Concentration 198.0 uM, Number of replicates 2.0, Standard deviation 1.857887141784961 %",1.32%
Cc1cc(CO)c2cccc(CC(=O)NCc3sccc3C)c2n1,inhibition,"PRVABC59, Concentration 49.95 uM, Number of replicates 2.0, Standard deviation 0.585311155534554 %",22.6%
same,inhibition,"PRVABC59, Concentration 99.9 uM, Number of replicates 2.0, Standard deviation 0.3155591867724611 %",30.3%
CSCC[C@H](NC(=O)OC(C)(C)C)C(=O)N1CCC[C@H]1C(=O)Nc1ccc([N+](=O)[O-])cc1 (Boc-Met-Pro-pNA),inhibition,"PRVABC59, Concentration 49.5 uM, Number of replicates 2.0, Standard deviation 2.4553944722955454 %",8.47%
same,inhibition,"PRVABC59, Concentration 99.01 uM, Number of replicates 2.0, Standard deviation 0.9634499829759906 %",16.7%
same,inhibition,"PRVABC59, Concentration 198.0 uM, Number of replicates 2.0, Standard deviation 1.6135445535944577 %",30.2%
O=C(Nc1ccc(Cl)c(Cl)c1F)c1cc(Cl)ccc1NS(=O)(=O)c1ccc(Oc2ccccc2Cl)cc1,inhibition,[2],25.6%
CN1CCN(c2ccc(NC(=O)C3CCN(c4ccc(C=O)cc4)CC3)cc2F)CC1,inhibition,[1],17.3%
O=C(Nc1ccc(Br)c([N+](=O)[O-])c1)c1cc(Cl)ccc1NS(=O)(=O)c1ccc(Oc2ccccc2Cl)cc1,inhibition,[2],31.6%
O=C(c1cc(Cl)ccc1NS(=O)(=O)c1ccc(Oc2ccccc2Cl)cc1)N1CCC[C@H](c2ccccc2)C1,inhibition,[2],21.9%
CNC(=O)c1cc(Cl)ccc1NS(=O)(=O)c1ccc(C(=O)N(C)C)cc1,inhibition,"PRVABC59, Concentration 49.5 uM, Number of replicates 2.0, Standard deviation 1.913623666524201 %",-2.08%
same,inhibition,"PRVABC59, Concentration 99.01 uM, Number of replicates 2.0, Standard deviation 2.2789140693439403 %",-0.135%
same,inhibition,"PRVABC59, Concentration 198.0 uM, Number of replicates 2.0, Standard deviation 1.38229221366052 %",2.97%
O=Cc1ccc(N2CCC(C(=O)Nc3n[nH]c4ccc(Br)cc34)CC2)cc1,inhibition,[1],10.5%
O=Cc1ccc(N2CCC(C(=O)N(Cc3ccc([N+](=O)[O-])cc3)C3CC3)CC2)cc1,inhibition,[1],24%
